Hit rate of the full screen: of about 310,000 compounds, about 14,000 (4.5%) showed an effect of 50% or more. Effects have a minus sign here. This is one part of the list.
Biological target: human ether-à-go-go-related gene (hERG) potassium channel (human, UniProt Q12809)
Experiment: primary screen, population patch clamp on CHO cells stably expressing hERG
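Also: peak tail current of the secondary pulse compared with the same well before compound.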

Sequence of human ether-à-go-go-related gene (hERG) potassium channel (Q12809 whole entry, looked up): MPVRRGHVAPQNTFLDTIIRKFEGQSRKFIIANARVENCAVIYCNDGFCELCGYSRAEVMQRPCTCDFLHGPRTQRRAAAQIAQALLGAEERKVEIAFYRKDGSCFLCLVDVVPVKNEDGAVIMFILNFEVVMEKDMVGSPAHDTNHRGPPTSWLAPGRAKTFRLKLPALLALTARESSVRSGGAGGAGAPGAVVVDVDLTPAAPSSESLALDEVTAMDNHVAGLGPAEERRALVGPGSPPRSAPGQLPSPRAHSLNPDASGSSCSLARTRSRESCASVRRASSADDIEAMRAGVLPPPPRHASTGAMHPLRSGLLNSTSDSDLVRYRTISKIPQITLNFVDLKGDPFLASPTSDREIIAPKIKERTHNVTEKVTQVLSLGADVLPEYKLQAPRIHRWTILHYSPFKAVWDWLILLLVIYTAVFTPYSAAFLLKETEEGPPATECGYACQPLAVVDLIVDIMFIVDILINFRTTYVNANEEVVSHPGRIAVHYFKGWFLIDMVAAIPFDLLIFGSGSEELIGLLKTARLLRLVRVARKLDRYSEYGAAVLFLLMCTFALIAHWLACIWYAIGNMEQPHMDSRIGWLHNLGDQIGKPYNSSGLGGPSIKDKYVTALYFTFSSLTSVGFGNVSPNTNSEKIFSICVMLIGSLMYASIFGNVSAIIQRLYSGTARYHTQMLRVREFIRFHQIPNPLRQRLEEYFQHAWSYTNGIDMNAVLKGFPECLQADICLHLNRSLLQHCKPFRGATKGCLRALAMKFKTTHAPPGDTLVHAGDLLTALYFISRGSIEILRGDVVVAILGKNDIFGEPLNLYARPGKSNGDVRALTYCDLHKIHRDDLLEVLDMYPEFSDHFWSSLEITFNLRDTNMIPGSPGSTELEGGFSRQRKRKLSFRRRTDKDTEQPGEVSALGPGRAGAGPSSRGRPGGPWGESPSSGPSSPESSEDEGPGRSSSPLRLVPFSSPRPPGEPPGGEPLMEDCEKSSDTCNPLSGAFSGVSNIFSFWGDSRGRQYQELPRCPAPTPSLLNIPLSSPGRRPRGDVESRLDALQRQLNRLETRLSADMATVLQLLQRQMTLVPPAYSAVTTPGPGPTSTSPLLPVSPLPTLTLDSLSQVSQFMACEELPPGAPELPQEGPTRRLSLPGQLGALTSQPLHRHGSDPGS

In order of falling “hERG current change (%, negative = inhibition) at 10uM” value:
1. Cc1cc(C)c2c(=O)c(/C=C3\NC(=S)NC3=O)coc2c1  26.6%
2. COc1cc(/C=N/NC(=O)c2cc(O)cc(O)c2)ccc1OC(=O)c1ccccc1  25.2%
3. COc1ccc(S(=O)(=O)N2CCC(C(=O)Nc3c(F)cccc3F)CC2)cc1  19%
4. CCCS(=O)(=O)c1snnc1C  14.8%
5. CN(C(=O)Nc1cccc(C(F)(F)F)c1)C1CCCCC1  14.7%
6. O=C(CCCCC(=O)NCCCc1ccccc1)NCCCc1ccccc1  14.1%
7. O=C(CN(Cc1cccs1)C(=O)CNS(=O)(=O)c1ccc(F)cc1)NCC1CCCO1 (stereo not drawn)  11.8%
8. C/C(=N/NC(=O)c1cc(C)[nH]n1)c1ccco1  11.5%
9. O=C(CNC(=O)c1ccc(Cl)cc1)NCCCn1ccnc1  11.3%
10. S=C(NCCCN1CCOCC1)N1CCOCC1  10.7%
11. Cc1ccc(OCCn2cc(C=O)c3ccccc32)cc1  10.5%
12. NC(=O)CC(NC(=O)Cc1cccc2ccccc12)c1ccc(NCCOc2ccccc2)c([N+](=O)[O-])c1 (stereo not drawn)  10.4%
13. O=C(O)c1ccc(/C=N/n2cc(-c3ccccc3)[nH]c2=S)cc1  10.3%
14. COC(=O)Nc1nnc(Cc2ccc(OC)cc2)s1  10.3%
15. CCCNC(=O)CN(CCc1ccccc1)S(C)(=O)=O  8.94%
16. COC(=O)c1ccc(NC(=O)c2sc3nc(-c4ccccc4)cn3c2C)cc1  8.42%
17. O=C(N/N=C/C=C\c1ccco1)c1cccnc1  8.4%
18. COCc1nnc(NC(=O)c2ccc(S(=O)(=O)N3CCCC3)cc2)o1  7.08%
19. CCOC(=O)c1ccc(Oc2nc(OC)nc(N(C)C)n2)cc1  6.27%
20. COc1cccc(OCc2cc(C(=O)N(C)C3CCOCC3)no2)c1  5.52%
21. CC1CCCCN1C(=O)CN1C(=O)CSc2ccc(S(=O)(=O)N3CCOCC3)cc21 (stereo not drawn)  5.4%
22. CN(C)S(=O)(=O)c1ccc(C(=O)NCC(=O)Nc2ccc(F)c(F)c2)cc1  4.94%
23. COc1ccc2[nH]cc(CCNC(=O)Cc3c(F)cccc3Cl)c2c1  4.63%
24. Nc1ccc(S(=O)(=O)Nc2nccc(/C=C/c3ccc(Cl)cc3Cl)n2)cc1  3.71%
25. COc1ccc(-c2csc(Nc3ccccn3)n2)cc1OC  3.24%
26. Cn1c(SCC(=O)NC(=O)NCc2ccco2)nnc1C(F)(F)F  3.13%
27. COc1ccc(OC)c(C(=O)c2ccccc2)c1  2.49%
28. COc1ccc(C(=O)Nn2cnnc2)cc1  2.42%
29. COc1ccc(S(=O)(=O)Nc2ccc3c(c2)n(C)c(=O)n3C)cc1C  2.39%
30. Cc1ccc(Sc2ncccc2C(N)=O)cc1  2.36%
31. COc1cc(OC)cc(C(=O)N2CCN(Cc3ccccc3Br)CC2)c1  2.14%
32. CCC(=O)Nc1ccc(C(=O)OCc2ccc(Cl)c(Cl)c2)cc1  0.0963%
33. Oc1ccc(N2CCN(Cc3nc4ccccc4[nH]3)CC2)cc1  -2.93%
34. COc1cc(C(=O)OCC(=O)N(C)c2ccccc2)cc(OC)c1OC  -3.14%
35. Cc1cc2n(n1)C(c1ccco1)Nc1ccccc1-2 (stereo not drawn)  -4.14%
36. Cc1sc2nc(SCC(=O)NCCO)n(-c3ccccc3)c(=O)c2c1C  -4.79%
37. O=C(CNC(=O)C1CCCCC1)OCc1cc(=O)oc2ccc3ccccc3c12  -4.88%
38. COc1ccccc1OCCOCCOc1ccccc1Cl  -5.82%
39. CC1=C(C(N)=O)C(c2ccc3c(c2)OCO3)n2nc(-c3cccc(C)c3)nc2N1 (stereo not drawn)  -7.33%
40. CCc1c(O)nc(SCC(=O)Nc2ccc(OC)cc2)n(C2CCCCC2)c1=O  -7.61%
41. Cc1ccc(S(=O)(=O)CCNC(=O)Cc2ccc(Cl)cc2)cc1  -8.99%
42. O=C1Nc2ccc([N+](=O)[O-])cc2C1(O)N1CCCCC1 (stereo not drawn)  -9.53%
43. COc1ccc(NC(=O)c2cccc(OC(=S)N3CCOCC3)c2)cc1  -11.2%
44. COc1cccc(O)c1CN1CCC(Oc2ccc(C(=O)NCc3ccccn3)cc2)CC1  -11.3%
45. CCCCOc1cccc(C(=O)N(Cc2ccccc2)C2CCS(=O)(=O)C2)c1 (stereo not drawn)  -14.2%
46. O=c1c(-c2ccc(Oc3ccccc3)cc2)[n+]([O-])c2ccccc2n1OCc1ccccn1  -14.7%
47. COc1ccc(Br)cc1CNC(=O)C1CCN(S(=O)(=O)N2CCCCC2)CC1  -15.7%
48. CCOC(=O)/C=C1\SCC(=O)N1CC(=O)NCCc1ccc(F)cc1  -18.7%
49. Cc1ccccc1N(CC(=O)N1CCCC1)S(=O)(=O)c1ccc(Cl)cc1  -26.3%
50. CCC(=O)N1CCN(c2ccc(NC(=O)c3ccc(Br)o3)cc2)CC1  -26.9%
51. CCn1c(COc2ccccc2)nnc1SCC(=O)CC(=O)Nc1ccccc1OC  -29.1%
52. COc1ccc(CN2CCN(C(=O)c3cc(-c4cccnc4)nc4ccc(Cl)cc34)CC2)c(OC)c1OC.Cl  -33.5%
53. CCOC(=O)c1ccc(-n2ccnc2)c(NC(=O)c2cccc(Br)c2)c1  -42.1%
54. COc1ccccc1-c1ocnc1C(=O)N1CCN(C(=O)C(c2ccccc2)c2ccccc2)CC1  -44.9%
55. Cc1ccc2oc(=O)c3cc(C(=O)NCCCN4CC(C)CC(C)C4)sc3c2c1 (stereo not drawn)  -49.2%
56. CCOc1cccc(-c2c(C(=O)N/N=C/c3cccnc3)nnn2-c2nonc2N)c1  -54%
57. CC(C)Oc1ccc(N2CC(C(=O)Nc3ccccc3C(=O)NC3CC3)CC2=O)cc1 (stereo not drawn)  -66.2%
